About 64,000 (15%) of roughly 420,000 compounds were called active. The shares of active, inactive and inconclusive entries below differ from those in the screen. Calls come from the whole dose curve; as a rule, active = well fitted inhibition curve with a large enough effect; inconclusive = small, poorly fitted or top-dose-only effect; inactive = flat fitted curve, though single readings scatter. No potency is given beside an inconclusive call; the fits are too rough.
test: qHTS for Inhibitors of human tyrosyl-DNA phosphodiesterase 1 (TDP1): qHTS in cells in absence of CPT; conditions: DT40 Tdp1-/- hTDP1 cells, no CPT, ATP luminescence, 48 h; activity change, negative = growth inhibition: at 46.2 µM (top of the series) unless noted; note: nearly all actives have a fitted effect of over 55% in size
In short: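 Growth of hTDP1-complemented DT40 Tdp1-knockout cells is measured by ATP luminescence after at least 48 hr compound exposure at 37 °C, with DMSO substituting for the 20 nM CPT used in the parallel screen.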
% is set by controls: 0 for no effect and ±100 for the full control effect; potency is the fitted concentration of half-maximal effect; tags give direction and shape of the fitted curve.

SMILES | activity change, negative = growth inhibition | Potency
CC(C)n1cnnc1SCC(=O)NC(=O)c1ccccc1 | inactive: -0.806% | –
O=C(c1ccc2c(c1)OCCO2)N(Cc1cccnc1)c1nc2ccc(Cl)cc2s1 | inactive: -2.66% | –
CCOC(=O)C1(Cc2ccccc2C(F)(F)F)CCN(Cc2ccc(COC)o2)CC1 | – | active: 8.2 µM
CC(C(=O)Nc1ccccc1Oc1ccccc1)c1ccccc1 (stereo not drawn) | – | inconclusive [inhibitor, single point]
Cc1ccc(NS(=O)(=O)N2CCOCC2)c(C)c1 | inactive: 13.4% | –
COc1cc(S(N)(=O)=O)c(OC)cc1N | inactive: -16.7% | –
COc1ccc(CNc2nc(C)c([N+](=O)[O-])c(C)c2C#N)cc1 | – | inconclusive [inhibitor, single point]
O=C(Nc1cccc(C(F)(F)F)c1)c1ccc(N2CCNCC2)c([N+](=O)[O-])c1 | – | active: 18.4 µM
O=C(c1c(F)c(F)c(F)c(F)c1F)N1CCc2ccccc21 | – | inconclusive [inhibitor, partial curve]
CCOc1ccccc1NC(=O)CCNC(=O)c1ccco1 | inactive: -9.34% | –
CC(C)(C)c1ccc(OCCC(=O)OCC(=O)Nc2ccc(N3CCOCC3)cc2)cc1 | – | inconclusive [inhibitor, single point]
CCc1c(O)cc(=O)n(-c2ccccc2)c1-c1ccccc1 | inactive: 2.11% | –
CCOC(=O)c1nnn2c1nc(N1CCCCC1)c1ccccc12 | – | inconclusive [inhibitor, single point]
COc1ccc(-c2cc(C(=O)N3CCN(c4ccccc4)CC3)c3ccccc3n2)cc1 | – | active: 4.61 µM
CC1CCC(NC(=O)c2nn(C)c(=O)c3ccccc23)CC1 (stereo not drawn) | inactive: -22.6% | –
Cc1noc(C)c1C(=O)OCC(=O)NC(c1ccccc1)c1ccccc1 | inactive: -15.2% | –
COc1ccc2oc(C(=O)NCc3cc(OC)c(OC)cc3OC)c(C)c2c1 | – | active: 16.4 µM
O=C1CCC(CCC(=O)N2CCCC(C(=O)c3cccc(C(F)(F)F)c3)C2)=NN1 (stereo not drawn) | inactive: -19.8% | –
CCC(C)NC(=O)c1ccccc1NC(=O)C1CCN(S(=O)(=O)Cc2ccccc2)CC1 (stereo not drawn) | – | inconclusive [inhibitor, single point]
C[C@H]1COc2cccc(N3CCC[C@@H]3CO)c2S(=O)(=O)N1 | inactive: -15.5% | –
CC1SC(c2ccccc2)N(CC(O)c2ccc([N+](=O)[O-])cc2)C1=O (stereo not drawn) | – | inconclusive [inhibitor, single point]
Cc1cc(C(=O)Nc2ccc3c(c2)OCCO3)ccc1[N+](=O)[O-] | inconclusive: -35.3% [inhibitor] | –
COc1ccc(NC(=O)CNc2cc(S(=O)(=O)N3CCOCC3)ccc2NCC2CCCO2)cc1 (stereo not drawn) | – | inconclusive [inhibitor, partial curve]

Source: PubChem BioAssay AID686978 (National Center for Advancing Translational Sciences (NCATS), 2013)
